# From the supplement of paper PMC8728848
# This is one part of the list.
# How the values were obtained:
# Experiment in all cases: glycan array binding signal (z-score within array); higher = stronger binding
# Settings in all cases: glycan notation: IUPAC condensed, linker removed
# Kdn(a2-3)Gal(b1-3)GalNAc = biological target: Kdn(a2-3)Gal(b1-3)GalNAc
# Outline: (§1)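 The Consortium for Functional Glycomics database supplied 3228 glycan arrays, of which those lacking an available protein sequence were dropped. The binding signal, a within-array Z-score, was averaged across arrays of the same protein sequence and across linkers. Negative scores can be read as non-binding.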
# Kdn(a2-3)Gal(b1-3)GlcNAc = biological target: Kdn(a2-3)Gal(b1-3)GlcNAc
# Outline: as §1
# Kdn(a2-3)Gal(b1-4)Glc = biological target: Kdn(a2-3)Gal(b1-4)Glc
# Outline: as §1
# Kdn(a2-3)Gal(b1-4)GlcNAc = biological target: Kdn(a2-3)Gal(b1-4)GlcNAc
# Outline: as §1
# [1] = biological target: Kdn(a2-3)Gal(b1-4)[Fuc(a1-3)]GlcNAc
# Outline: as §1
# Kdn(a2-6)Gal(b1-4)GlcNAc = biological target: Kdn(a2-6)Gal(b1-4)GlcNAc
# Outline: as §1
# [2] = biological target: Man(a1-2)Man(a1-2)Man(a1-3)Man
# Outline: as §1
# [3] = biological target: Man(a1-2)Man(a1-2)Man(a1-6)[Man(a1-3)]Man
# Outline: as §1
# Man(a1-2)Man(a1-3)Man = biological target: Man(a1-2)Man(a1-3)Man
# Outline: as §1
# [4] = biological target: Man(a1-2)Man(a1-3)[Man(a1-2)Man(a1-6)]Man
# Outline: as §1
# [5] = biological target: Man(a1-2)Man(a1-3)[Man(a1-2)Man(a1-6)]Man(a1-6)[Man(a1-2)Man(a1-2)Man(a1-3)]Man
# Outline: as §1
# [6] = biological target: Man(a1-2)Man(a1-3)[Man(a1-2)Man(a1-6)]Man(a1-6)[Man(a1-2)Man(a1-2)Man(a1-3)]Man(b1-4)GlcNAc(b1-4)GlcNAc
# Outline: as §1
# [7] = biological target: Man(a1-2)Man(a1-3)[Man(a1-2)Man(a1-6)]Man(a1-6)[Man(a1-3)[Man(a1-6)]Man(a1-6)]Man(b1-4)GlcNAc(b1-4)GlcNAc
# Outline: as §1
# [8] = biological target: Man(a1-2)Man(a1-3)[Man(a1-6)]Man(a1-6)[Man(a1-2)Man(a1-3)]Man(b1-4)GlcNAc(b1-4)GlcNAc
# Outline: as §1
# [9] = biological target: Man(a1-2)Man(a1-6)[Man(a1-3)]Man(a1-6)[Man(a1-2)Man(a1-2)Man(a1-3)]Man
# Outline: as §1
# [10] = biological target: Man(a1-2)Man(a1-6)[Man(a1-3)]Man(a1-6)[Man(a1-2)Man(a1-2)Man(a1-3)]Man(b1-4)GlcNAc(b1-4)GlcNAc
# Outline: as §1
# Man(a1-3)[Man(a1-6)]Man = biological target: Man(a1-3)[Man(a1-6)]Man
# Outline: as §1
# [11] = biological target: Man(a1-3)[Man(a1-6)]Man(a1-6)[Man(a1-2)Man(a1-3)]Man(b1-4)GlcNAc(b1-4)GlcNAc
# Outline: as §1
# [12] = biological target: Man(a1-3)[Man(a1-6)]Man(a1-6)[Man(a1-3)]Man
# Outline: as §1
# [13] = biological target: Man(a1-3)[Man(a1-6)]Man(a1-6)[Man(a1-3)]Man(b1-4)GlcNAc(b1-4)GlcNAc
# Outline: as §1
# [14] = biological target: Man(a1-3)[Man(a1-6)]Man(b1-4)GlcNAc(b1-4)GlcNAc
# Outline: as §1
# [15] = biological target: Man(a1-3)[Man(a1-6)]Man(b1-4)GlcNAc(b1-4)[Fuc(a1-6)]GlcNAc
# Outline: as §1
# Man(a1-6)Man = biological target: Man(a1-6)Man
# Outline: as §1
# Man(b1-4)GlcNAc = biological target: Man(b1-4)GlcNAc
# Outline: as §1
# MurNAc(b1-4)GlcNAc = biological target: MurNAc(b1-4)GlcNAc
# Outline: as §1
# Neu5Ac(a2-3)Gal = biological target: Neu5Ac(a2-3)Gal
# Outline: as §1
# [16] = biological target: Neu5Ac(a2-3)Gal(b1-3)GalNAc
# Outline: as §1
# [17] = biological target: Neu5Ac(a2-3)Gal(b1-3)GalNAc(b1-3)Gal(a1-4)Gal(b1-4)Glc
# Outline: as §1
# [18] = biological target: Neu5Ac(a2-3)Gal(b1-3)GalNAc(b1-3)Gal(b1-4)GlcNAc
# Outline: as §1
# [19] = biological target: Neu5Ac(a2-3)Gal(b1-3)GalNAc(b1-4)[Neu5Ac(a2-3)]Gal(b1-4)Glc
# Outline: as §1
# [20] = biological target: Neu5Ac(a2-3)Gal(b1-3)GalNAc(b1-4)[Neu5Ac(a2-8)Neu5Ac(a2-3)]Gal(b1-4)Glc
# Outline: as §1
# [21] = biological target: Neu5Ac(a2-3)Gal(b1-3)GalNAc6S
# Outline: as §1
# [22] = biological target: Neu5Ac(a2-3)Gal(b1-3)GlcNAc
# Outline: as §1
# [23] = biological target: Neu5Ac(a2-3)Gal(b1-3)GlcNAc(b1-2)Man
# Outline: as §1
# [24] = biological target: Neu5Ac(a2-3)Gal(b1-3)GlcNAc(b1-2)Man(a1-3)[GlcNAc(b1-4)][Neu5Ac(a2-3)Gal(b1-3)GlcNAc(b1-2)Man(a1-6)]Man(b1-4)GlcNAc(b1-4)GlcNAc
# Outline: as §1
# [25] = biological target: Neu5Ac(a2-3)Gal(b1-3)GlcNAc(b1-2)Man(a1-3)[Neu5Ac(a2-3)Gal(b1-3)GlcNAc(b1-2)Man(a1-6)]Man(b1-4)GlcNAc(b1-4)GlcNAc
# Outline: as §1
# [26] = biological target: Neu5Ac(a2-3)Gal(b1-3)GlcNAc(b1-3)Gal(b1-3)GlcNAc
# Outline: as §1
binder,measurement,setting,value
"CSA (Cytisus scoparius), P29257 (protein) SEELSFSFTKFKTDQKNLILQRDALITPTGKLQLTTVENGKPAAYSLGRALYSTPIHIWDKSTGDEASFATFFSFVISDAPNPSTAATDGLAFFLAPADTQPQSAGGYLGLFEKDSSYNSSNQIVAVEFDTYYNSAWDPQTNPHIGIDVNTIKSKKVSSWGFKNGNVATVLITYQPSSKSLVASLVYPSGQTSDKTSYIISANVDLKATVPEWVRIGFSATTGQTDNYIETHDILSWSFKSKLPATKN",glycan array binding signal (z-score),Kdn(a2-3)Gal(b1-3)GalNAc,-0.123
same,glycan array binding signal (z-score),Kdn(a2-3)Gal(b1-3)GlcNAc,-0.19
same,glycan array binding signal (z-score),Kdn(a2-3)Gal(b1-4)Glc,-0.11
same,glycan array binding signal (z-score),Kdn(a2-3)Gal(b1-4)GlcNAc,-0.145
same,glycan array binding signal (z-score),[1],-0.135
same,glycan array binding signal (z-score),Kdn(a2-6)Gal(b1-4)GlcNAc,-0.107
same,glycan array binding signal (z-score),[2],-0.228
same,glycan array binding signal (z-score),[3],-0.088
same,glycan array binding signal (z-score),Man(a1-2)Man(a1-3)Man,-0.188
same,glycan array binding signal (z-score),[4],-0.234
same,glycan array binding signal (z-score),[5],-0.17
same,glycan array binding signal (z-score),[6],-0.095
same,glycan array binding signal (z-score),[7],-0.183
same,glycan array binding signal (z-score),[8],-0.134
same,glycan array binding signal (z-score),[9],-0.179
same,glycan array binding signal (z-score),[10],-0.191
same,glycan array binding signal (z-score),Man(a1-3)[Man(a1-6)]Man,-0.223
same,glycan array binding signal (z-score),[11],0.383
same,glycan array binding signal (z-score),[12],-0.151
same,glycan array binding signal (z-score),[13],-0.181
same,glycan array binding signal (z-score),[14],-0.142
same,glycan array binding signal (z-score),[15],-0.225
same,glycan array binding signal (z-score),Man(a1-6)Man,-0.112
same,glycan array binding signal (z-score),Man(b1-4)GlcNAc,-0.105
same,glycan array binding signal (z-score),MurNAc(b1-4)GlcNAc,-0.202
same,glycan array binding signal (z-score),Neu5Ac(a2-3)Gal,-0.162
same,glycan array binding signal (z-score),[16],-0.043
same,glycan array binding signal (z-score),[17],-0.17
same,glycan array binding signal (z-score),[18],-0.177
same,glycan array binding signal (z-score),[19],-0.247
same,glycan array binding signal (z-score),[20],-0.182
same,glycan array binding signal (z-score),[21],-0.194
same,glycan array binding signal (z-score),[22],-0.179
same,glycan array binding signal (z-score),[23],-0.256
same,glycan array binding signal (z-score),[24],-0.231
same,glycan array binding signal (z-score),[25],-0.028
same,glycan array binding signal (z-score),[26],-0.208
